# Reference: PMC9911399, “Two distinct binding modes provide the RNA-binding protein RbFox with extraordinary sequence specificity”
# Changes are numbered by the printed parent chain; changes in the protein carry UniProt numbers. The list shows a part of the results.
# T1: RBFOX1 RRM RbFoxmut (Fox-RRM*) (Homo sapiens, UniProt Q9NWB1 109-208, R118D;E147R;N151S;E152T)
# T1 sequence: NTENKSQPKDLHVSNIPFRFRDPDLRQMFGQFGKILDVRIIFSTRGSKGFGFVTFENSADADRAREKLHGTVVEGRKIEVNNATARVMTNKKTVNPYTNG
# B1: UGUAGCC (DNA:RNA)
# RNA: GGGAGACCGGAAUUCAGAUUGUCCUGUAGCCUUAAAUCCCGUCGUAGCCACCA
# DNA 1: CAATCTGAATTCCGGTCTCCC
# DNA 2: TGGTGGCTACGACGGGATT
# B2: UGCAAAA (DNA:RNA)
# RNA: B1 RNA with U27C, G29A, C30A, C31A
# DNA 1: CAATCTGAATTCCGGTCTCCC
# DNA 2: TGGTGGCTACGACGGGATT
# B3: AAGACAG (DNA:RNA)
# RNA: B1 RNA with U25A, G26A, U27G, G29C, C30A, C31G
# DNA 1: CAATCTGAATTCCGGTCTCCC
# DNA 2: TGGTGGCTACGACGGGATT
# B4: GUAGAGG (DNA:RNA)
# RNA: GGGAGACCGGAAUUCAGAUUGUCCGUAGAGGUUAAAUCCCGUCGUAGCCACCA
# DNA 1: CAATCTGAATTCCGGTCTCCC
# DNA 2: TGGTGGCTACGACGGGATT
# B5: UUAAACA (DNA:RNA)
# RNA: B4 RNA with G25U, G28A, G30C, G31A
# DNA 1: CAATCTGAATTCCGGTCTCCC
# DNA 2: TGGTGGCTACGACGGGATT
# B6: UAUACCU (DNA:RNA)
# RNA: B1 RNA with G26A, G29C, C31U
# DNA 1: CAATCTGAATTCCGGTCTCCC
# DNA 2: TGGTGGCTACGACGGGATT
# B7: GCCGUAU (DNA:RNA)
# RNA: B4 RNA with U26C, A27C, A29U, G30A, G31U
# DNA 1: CAATCTGAATTCCGGTCTCCC
# DNA 2: TGGTGGCTACGACGGGATT
# B8: CCAGGGG (DNA:RNA)
# RNA: B4 RNA with G25C, U26C, A29G
# DNA 1: CAATCTGAATTCCGGTCTCCC
# DNA 2: TGGTGGCTACGACGGGATT
# B9: GUGAGCU (DNA:RNA)
# RNA: B1 RNA with U25G, G26U, U27G, C31U
# DNA 1: CAATCTGAATTCCGGTCTCCC
# DNA 2: TGGTGGCTACGACGGGATT
# B10: CAUACGU (DNA:RNA)
# RNA: B1 RNA with U25C, G26A, G29C, C30G, C31U
# DNA 1: CAATCTGAATTCCGGTCTCCC
# DNA 2: TGGTGGCTACGACGGGATT
# B11: CAGCCAU (DNA:RNA)
# RNA: GGGAGACCGGAAUUCAGAUUGUCCCAGCCAUUUAAAUCCCGUCGUAGCCACCA
# DNA 1: CAATCTGAATTCCGGTCTCCC
# DNA 2: TGGTGGCTACGACGGGATT
# B12: ACCUCGG (DNA:RNA)
# RNA: B4 RNA with G25A, U26C, A27C, G28U, A29C
# DNA 1: CAATCTGAATTCCGGTCTCCC
# DNA 2: TGGTGGCTACGACGGGATT
# B13: AAUAAUG (DNA:RNA)
# RNA: B4 RNA with G25A, U26A, A27U, G28A, G30U
# DNA 1: CAATCTGAATTCCGGTCTCCC
# DNA 2: TGGTGGCTACGACGGGATT
# B14: CCUAGCU (DNA:RNA)
# RNA: B1 RNA with U25C, G26C, C31U
# DNA 1: CAATCTGAATTCCGGTCTCCC
# DNA 2: TGGTGGCTACGACGGGATT
# B15: ACCACGU (DNA:RNA)
# RNA: B11 RNA with C25A, A26C, G27C, C28A, A30G
# DNA 1: CAATCTGAATTCCGGTCTCCC
# DNA 2: TGGTGGCTACGACGGGATT
# B16: UUGUGGU (DNA:RNA)
# RNA: B11 RNA with C25U, A26U, C28U, C29G, A30G
# DNA 1: CAATCTGAATTCCGGTCTCCC
# DNA 2: TGGTGGCTACGACGGGATT
# B17: GAAAAUU (DNA:RNA)
# RNA: B4 RNA with U26A, G28A, G30U, G31U
# DNA 1: CAATCTGAATTCCGGTCTCCC
# DNA 2: TGGTGGCTACGACGGGATT
# B18: ACUGUUU (DNA:RNA)
# RNA: B11 RNA with C25A, A26C, G27U, C28G, C29U, A30U
# DNA 1: CAATCTGAATTCCGGTCTCCC
# DNA 2: TGGTGGCTACGACGGGATT
# B19: UAUCCAU (DNA:RNA)
# RNA: B11 RNA with C25U, G27U
# DNA 1: CAATCTGAATTCCGGTCTCCC
# DNA 2: TGGTGGCTACGACGGGATT
# B20: AGGUACG (DNA:RNA)
# RNA: B4 RNA with G25A, U26G, A27G, G28U, G30C
# DNA 1: CAATCTGAATTCCGGTCTCCC
# DNA 2: TGGTGGCTACGACGGGATT
# Target: T1, RBFOX1 RRM RbFoxmut (Fox-RRM*)
# Experiment: EMSA; HiTS-Eq, 1 nM pool, 10 min; buffer printed only for the single-RNA assays: 10 mM Tris pH 7.5, 150 mM NaCl, 3.4 mM EDTA, 0.001% NP-40, 30 C
# Details: tags: His6 N-terminal (pET28a); label: 5' 32P
# Procedure, shortened: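 Relative association constants, normalised to the cognate motif, were derived by comparing read counts of each RNA species with those of the control reaction. The RNA sequenced was the free fraction, separated by 8% native PAGE after a 10 min equilibration in 50 µL of 1 nM 5′-radiolabelled RNA (7 randomized nucleotides) with increasing concentrations of purified wild-type or mutant RbFox RRM.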
row,Binder,binding signal
1,B1,0.141 KA relative to UGCAUGU
2,B2,0.102 KA relative to UGCAUGU
3,B3,0.0689 KA relative to UGCAUGU
4,B4,0.0906 KA relative to UGCAUGU
5,B5,0.0699 KA relative to UGCAUGU
6,B6,0.0911 KA relative to UGCAUGU
7,B7,0.113 KA relative to UGCAUGU
8,B8,0.0555 KA relative to UGCAUGU
9,B9,0.13 KA relative to UGCAUGU
10,B10,0.114 KA relative to UGCAUGU
11,B11,0.0919 KA relative to UGCAUGU
12,B12,0.0686 KA relative to UGCAUGU
13,B13,0.0923 KA relative to UGCAUGU
14,B14,0.111 KA relative to UGCAUGU
15,B15,0.105 KA relative to UGCAUGU
16,B16,0.164 KA relative to UGCAUGU
17,B17,0.0686 KA relative to UGCAUGU
18,B18,0.11 KA relative to UGCAUGU
19,B19,0.0794 KA relative to UGCAUGU
20,B20,0.258 KA relative to UGCAUGU
